The values that follow come from PubChem BioAssay AID1745853 (National Center for Advancing Translational Sciences (NCATS), 2022).

The other results are listed elsewhere or left out. Shown are side measurements of this screen, not its main read-out; they come without a call.

Assay in all cases: Primary Screen for Target Class Profiling of Small Molecule Inhibitors of Methyltransferases
The target in test [1] is Glycine N-methyltransferase (Homo sapiens) (UniProt Q14749). Conditions: purified enzyme, MTase-Glo SAH luminescence; measured here: GNMT inhibition; at 40 µM; stronger effect = lower value. An outline of the steps:
(§1)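 Each enzyme was assayed with SAM and its substrate. SAH formation detected by MTase-Glo luminescence; single-point 40 uM screen[…].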

The target in test [2] is Guanidinoacetate N-methyltransferase (Homo sapiens) (UniProt Q14353). Conditions: purified enzyme, MTase-Glo SAH luminescence; measured here: GAMT inhibition; at 40 µM; stronger effect = lower value. An outline of the steps:
as §1

Test [3] addresses Histamine N-methyltransferase (Homo sapiens) (UniProt P50135). Conditions: purified enzyme, MTase-Glo SAH luminescence; measured here: HNMT inhibition; at 40 µM; stronger effect = lower value. In outline:
as §1

Test [4] addresses Nicotinamide N-methyltransferase (Homo sapiens) (UniProt P40261). The note with it: purified enzyme, MTase-Glo SAH luminescence; measured here: NNMT inhibition; at 40 µM; stronger effect = lower value. In outline:
as §1

The target in test [5] is Phenylethanolamine N-methyltransferase (Homo sapiens) (UniProt P11086). The note with it: purified enzyme, MTase-Glo SAH luminescence; measured here: PNMT inhibition; at 40 µM; stronger effect = lower value. An outline of the steps:
as §1
On the % scale 0 is the no-effect control and ±100 the full control effect.

In the case of `CCCCN1C(=O)c2cc(C(=O)NCCN3CCN(CC)CC3)nn2CC1(C)C(=O)NC1CCCC1` (stereo not given), the activity change, negative = inhibition in test [1] was found to be 4.17%; in test [2], 0.613%; in test [3], 4.89%; in test [4] it was 1.33%; in test [5] it was 3.54%.

Consider `CCCn1c(=O)c2ccccc2n2c(=O)n(Cc3ccc(F)cc3)nc12`, for which the activity change, negative = inhibition in test [1] is 4.15%; in test [2], 0.957%; in test [3], 10.8%; in test [4], -7.91%; in test [5] it was 8.97%.

Regarding `Cc1ccccc1Cn1nc2n(c1=O)CCCCC2`, the activity change, negative = inhibition in test [1] is -2.58%; in test [2] it was -2.45%; in test [3], 0.485%; in test [4], -4.82%; in test [5], 7.63%.

Regarding `CC(C)CCNC(=O)C1c2c(n(C)c3ccccc23)SCC(=O)N1CCc1ccc(Cl)cc1` (stereo not given), the activity change, negative = inhibition was 6.96% in test [1]; 5.86% in test [2]; 0.463% in test [3]; -5.15% in test [4]; 3.95% in test [5].

For the molecule `CC1(C(=O)NC2CCCC2)Cn2c(ccc2-c2ccco2)C(=O)N1CCc1ccccc1` (stereo not given), the activity change, negative = inhibition in test [1] is -7.85%; in test [2] it was -10.3%; in test [3] it was 4.91%; in test [4], -13.2%; in test [5] it was -6.26%.

As for `CC(C)CCNC(=O)C1c2c(n(C)c3ccccc23)SCC(=O)N1Cc1cccs1` (stereo not given), the activity change, negative = inhibition in test [1] was 4.18%; in test [2], 0%; in test [3] it was -4.61%; in test [4], -4.54%; in test [5], -1.01%.

On to `CCOc1ccc(CCN2C(=O)c3cc(C(=O)OC)nn3CC2(C)C(=O)NC2CCCCCC2)cc1` (stereo not given), for which the activity change, negative = inhibition in test [1] was 0.27%; in test [2], 1.54%; in test [3] it was -8.91%; in test [4], 1.25%; in test [5], 2.32%.

For the molecule `O=C(NCc1cccc(C(F)(F)F)c1)C1(CCO)CC12CCN(c1ncccn1)CC2` (stereo not given), the activity change, negative = inhibition was -5.21% in test [1]; -3.28% in test [2]; -1.7% in test [3]; -4.27% in test [4]; 0.588% in test [5].

With `O=S(=O)(C1CC1)N1CCn2c(nnc2-c2cncc(Br)c2)C1`, the activity change, negative = inhibition in test [1] was -1.85%; in test [2], -0.203%; in test [3] it was -2.75%; in test [4], -2.48%; in test [5] it was -2.64%.

Regarding `C=C1CC2C3(C)C(O)CC(=O)C(C)(C)C3C(O)C(OC(C)=O)C2(C)C2C(=O)OC(C)(C(=O)OC)C(=O)C12C` (stereo not given), the activity change, negative = inhibition in test [1] is 1.14%; in test [2], -7.62%; in test [3], 2.88%; in test [4], -15.7%; in test [5], -3.02%.

In the case of `CCOc1ccc(C2c3cccn3-c3sc4c(c3CN2C(=O)Nc2ccc(F)cc2F)CCCC4)cc1` (stereo not given), the activity change, negative = inhibition in test [1] was 4.89%; in test [2] it was 2.19%; in test [3], 1.86%; in test [4] it was -9.3%; in test [5], -0.928%.

Regarding `COCCN1CCC(C(=O)NO)(S(=O)(=O)c2ccc(Oc3ccc(OC(F)(F)F)cc3)cc2)CC1`, the activity change, negative = inhibition in test [1] was 8.45%; in test [2], 3.47%; in test [3], 3.31%; in test [4], -13.9%; in test [5], -1.32%.

In the case of `O=c1[nH]c2ccccc2n1C1CCN(S(=O)(=O)c2ccc(F)cc2)CC1`, the activity change, negative = inhibition in test [1] is -3.89%; in test [2], 4.94%; in test [3], 6.69%; in test [4], 9.48%; in test [5], -1.1%.

As to `COc1ccc(-c2cc3n(n2)CC(C)(C(=O)NCc2ccccc2)N(c2ccc(C)c(C)c2)C3=O)cc1` (stereo not given), the activity change, negative = inhibition in test [1] was 7.95%; in test [2] it was 1.83%; in test [3] it was 10.4%; in test [4], 10.2%; in test [5] it was 2.79%.

`Cn1c(=O)n(C)c2cc(S(=O)(=O)N(Cc3ccccc3)C(=O)C3CCCCC3)ccc21`: the activity change, negative = inhibition in test [1] was -0.289%; in test [2], 0%; in test [3], -0.605%; in test [4], -25.6%; in test [5] it was -3.35%.

Consider `Nc1ccc(-c2ccc3ccccc3n2)cc1`, for which the activity change, negative = inhibition was -9.19% in test [1]; 4.37% in test [2]; 4.44% in test [3]; -6.51% in test [4]; -3.16% in test [5].

As to `CCc1cc2c(cc3n2CC(C)(C(=O)NC2CCC(C)CC2)N(CCCOC)C3=O)s1` (stereo not given), the activity change, negative = inhibition in test [1] is 0.233%; in test [2], 0.337%; in test [3], 2.78%; in test [4] it was -9.02%; in test [5], -0.372%.

For the molecule `CC1CCC2(C(=O)O)CCC3(C)C(=CCC4C5(C)C[C@@H](O)[C@@H](O)C(C)(CO)C5CCC43C)C2C1(C)O` (stereo not given in full), the activity change, negative = inhibition in test [1] is 0.751%; in test [2], -7%; in test [3] it was 5.14%; in test [4], -14.6%; in test [5], -10.1%.

Regarding `CC(=O)N1CCN(C(=O)c2ccc3oc(-c4ccccn4)nc3c2)CC1`, the activity change, negative = inhibition in test [1] is -1.7%; in test [2], -2.77%; in test [3] it was 0.99%; in test [4], -6.08%; in test [5], -1.36%.

In the case of `CCc1cccc(N2C(=O)c3cc4ccccc4n3CC2(C)C(=O)NCCC(C)C)c1` (stereo not given), the activity change, negative = inhibition is 1.35% in test [1]; 2.24% in test [2]; 3.21% in test [3]; -3.68% in test [4]; -1.31% in test [5].

Take `CC(C)Cn1c(=O)c2ccc(C(=O)NC3CCCCC3)cc2n2c(SCC(N)=O)nnc12`: the activity change, negative = inhibition in test [1] was 1.26%; in test [2], 0%; in test [3], 8.19%; in test [4], -1.27%; in test [5], 2.33%.

Take `O=C1CCCCC(CNC(=O)c2cccc(F)c2)N1` (stereo not given): the activity change, negative = inhibition in test [1] is -1.38%; in test [2], -0.184%; in test [3], 1.19%; in test [4] it was -4.39%; in test [5], -2.18%.

As for `O=C(Nc1cccc(Cl)c1)N1Cc2c(sc3c2CCCC3)-n2cccc2C1c1ccccc1` (stereo not given), the activity change, negative = inhibition in test [1] is -0.43%; in test [2] it was 0%; in test [3], -3.43%; in test [4] it was -6.87%; in test [5], 4.05%.

For the molecule `CCOc1ccccc1CN1C(=O)c2cc(-c3cccs3)nn2CC1(C)C(=O)NC1CCCCC1` (stereo not given), the activity change, negative = inhibition in test [1] turned out to be 6.09%; in test [2], 1.12%; in test [3] it was 9.33%; in test [4], 8.59%; in test [5], 5.33%.

With `CCCn1c(=O)c2cc(Cl)ccc2n2c(SCC(=O)NC(C)C)nnc12`, the activity change, negative = inhibition is -6.46% in test [1]; 1.72% in test [2]; 1.33% in test [3]; -5.86% in test [4]; -3.28% in test [5].

In the case of `O=C(NCc1ccco1)C1CCc2nc(N3CCN(C(=O)C4CCC4)CC3)sc2C1` (stereo not given), the activity change, negative = inhibition in test [1] is -6.58%; in test [2] it was -3.58%; in test [3], -2.99%; in test [4], -0.728%; in test [5], 1.77%.

For the molecule `O=C(CCc1nc2ccc(Cl)cc2[nH]1)N1CCc2c(nc3cc(-c4ccccc4)[nH]n3c2=O)C1`, the activity change, negative = inhibition in test [1] is -12.8%; in test [2], -0.808%; in test [3], -3.54%; in test [4], 0.231%; in test [5] it was -5.4%.

Turning to `COc1ccc(OC)c(S(=O)(=O)N2CCC3(CC2)CC(CC(=O)N(C)C)CCO3)c1` (stereo not given), the activity change, negative = inhibition in test [1] was 5.77%; in test [2] it was 1.15%; in test [3] it was 15.6%; in test [4], 5.21%; in test [5] it was 10.3%.

Consider `CN(C)CCN1C(=O)c2cc3sccc3n2CC1(C)C(=O)NC1CCCCCCC1` (stereo not given), for which the activity change, negative = inhibition in test [1] was -4.56%; in test [2] it was 0%; in test [3], -12.8%; in test [4], -10.4%; in test [5], -1.92%.
